Measured values: PubChem BioAssay AID1476 (National Center for Advancing Translational Sciences (NCATS), 2009)
Out of some 200,000 compounds screened, about 4,500 (2.2%) were called active. The shares of active, inactive and inconclusive entries below differ from those in the screen. The call rests on the fitted dose curve; in most records, active means well fitted inhibition curve with a large enough effect; inconclusive means small, poorly fitted or top-dose-only effect, or effect the other way; inactive means flat fitted curve, though single readings scatter. A potency beside an inconclusive call is a rough fit, not a confirmed value.
Further: nearly all actives have a fitted effect of over 40% in size.
Potency means the concentration at half of the fitted maximal effect; tags describe the fitted curve by direction and shape.
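Wherever max response, negative = inhibition is given: plate controls were enzyme without inhibitor for no effect and buffer without enzyme for full effect.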

Each molecule was assayed against Cruzipain (Trypanosoma cruzi) (UniProt P25779) (assay: qHTS Assay for Promiscuous and Specific Inhibitors of Cruzain (without detergent)). Conditions: purified cruzain, Z-FR-AMC fluorescence, no detergent.
Sequence of UniProt P25779 (P25779 whole entry, looked up): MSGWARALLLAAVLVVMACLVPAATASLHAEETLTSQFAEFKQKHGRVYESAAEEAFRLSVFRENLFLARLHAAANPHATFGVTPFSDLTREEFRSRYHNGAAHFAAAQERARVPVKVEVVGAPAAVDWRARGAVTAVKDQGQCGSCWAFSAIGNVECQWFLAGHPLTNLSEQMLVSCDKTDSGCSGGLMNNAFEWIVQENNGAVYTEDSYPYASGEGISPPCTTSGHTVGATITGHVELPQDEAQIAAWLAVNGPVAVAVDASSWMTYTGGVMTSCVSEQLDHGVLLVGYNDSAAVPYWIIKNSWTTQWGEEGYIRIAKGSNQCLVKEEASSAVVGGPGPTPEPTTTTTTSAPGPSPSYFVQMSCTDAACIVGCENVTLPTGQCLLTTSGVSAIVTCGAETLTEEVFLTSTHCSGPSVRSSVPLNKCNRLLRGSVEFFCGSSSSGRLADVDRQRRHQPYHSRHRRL
Summary of the method: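 Purified cruzain at 1.5 nM, pre-incubated 15 min with compound at room temperature in 100 mM sodium acetate pH 5.5, 5 mM DTT, 0.00005% Triton X-100. Reaction started with 2 uM Z-FR-AMC; AMC fluorescence increase over 60 s gives rate.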
COc1ccccc1NS(=O)(=O)c1cc(NC(=O)c2ccc(Cl)nc2)ccc1Cl was tested, and the Potency was inconclusive: 31.6 µM [inhibitor, single point].
In the case of O=C(c1ccccc1)N1CCN(C2c3cccc4cccc(c34)C2NS(=O)(=O)c2ccccc2)CC1 (stereo not drawn), the Potency is reported as inconclusive: 39.8 µM [inhibitor, single point].
COC(=O)c1cc(OC)c(OC)cc1NC(=O)c1ccc2c(c1)CCN2S(=O)(=O)c1ccccc1 was tested, and the max response, negative = inhibition was inactive: 1.26%.
CCOc1ccccc1CN1CCc2nc(Nc3ccccc3)ncc2C1 was tested, and the Potency was inconclusive: 31.6 µM [inhibitor, single point].
With COc1ccc(-c2cc(=O)c3cc(OC)ccc3[nH]2)cc1 the max response, negative = inhibition was inactive: -5.26%.
With Cc1ccc(CN2CCN(/N=C/c3cc(Br)cc(Br)c3O)CC2)c(C)c1 the Potency was inconclusive: 39.8 µM [inhibitor, single point].
For CCc1nc2c(cnn2-c2ccc(Cl)cc2)c(=O)n1-c1ccc(OC)cc1, the Potency was inconclusive: 31.6 µM [activator, single point].
In the case of CCOCCCNC(=O)c1ccc2c(c1)N(Cc1ccccc1)C(=O)CS2=O (stereo not drawn), the max response, negative = inhibition is reported as inactive: -2.78%.
COc1cc2c(cc1OC)n(CC(=O)c1ccc(C)cc1)c(=O)n1nc(CCn3nc(C)cc3C)nc21 was tested, and the max response, negative = inhibition was inactive: -13.9%.
With COc1ccc(OC)c(NC(=O)Cn2cc(C(=O)c3ccc(Cl)cc3)c(=O)c3cc(OC)ccc32)c1 the max response, negative = inhibition was inactive: 11.4%.
In the case of COc1ccc(C(=O)Nc2ccc(-c3cn4ccsc4n3)cc2)cc1S(=O)(=O)N1CCOCC1, the Potency is reported as inconclusive: 39.8 µM [activator, single point].
In the case of Cc1ccc(C)c(S(=O)(=O)c2nnn3c2nc(N2CCCCC2)c2sccc23)c1, the Potency is reported as inconclusive: 31.6 µM [inhibitor, single point].
With CCOc1cc(/C=N/Nc2ccccc2Cl)ccc1OCC(=O)O the Potency was inconclusive: 31.6 µM [activator, single point].
For NNC(=O)Cc1cccnc1, the max response, negative = inhibition was inactive: -0.0363%.
With CC1CCN(c2nc3ccccc3nc2C(C#N)C(=O)NC2CCCCC2)CC1 (stereo not drawn) the Potency was active: 20 µM.
With CC1=NN(c2ccccc2)C(=O)/C1=C\c1ccc(Oc2ccc([N+](=O)[O-])cc2[N+](=O)[O-])cc1 the Potency was inconclusive: 25.1 µM [inhibitor, single point].
O=C(N/N=C/c1ccccc1)c1ccc(CN2C(=O)c3cccc4cccc2c34)cc1 was tested, and the max response, negative = inhibition was inactive: -68.1%.
For COc1ccc(-c2nc(S(=O)(=O)c3ccc(C)cc3)c(NCc3ccccc3)o2)cc1, the Potency was inconclusive: 39.8 µM [inhibitor, single point].
For Cn1cc(-c2cc3n(n2)CCC(=O)N3CCCC(=O)Nc2ccccc2F)c2ccccc21, the Potency was inconclusive: 25.1 µM [activator, partial curve].
For COc1ccc(/C=C/C(=O)OCC(=O)Nc2ccc(Cl)c(S(=O)(=O)N(C)C)c2)cc1OC, the Potency was inconclusive: 39.8 µM [activator, single point].
O=C(CSc1nnc(-c2ccccc2)c(-c2ccccc2)n1)NCc1ccco1 was tested, and the Potency was inconclusive: 25.1 µM [inhibitor, partial curve].
COc1cccc(-c2ccc(C#N)c(OC(=O)c3c(Cl)cccc3Cl)n2)c1 was tested, and the Potency was inconclusive: 31.6 µM [inhibitor, single point].
With Cc1ccc(C(=O)NN2C(=O)/C(=C/c3cccn3C)SC2=S)cc1 the Potency was inconclusive: 39.8 µM [inhibitor, single point].
COc1ccc(C(=O)CCC(=O)Nc2cc(C)ccc2C)cc1 was tested, and the max response, negative = inhibition was inactive: -8.77%.
Cc1nn(Cc2ccc(F)cc2)c2sc(C(=O)Nc3ccccc3N3CCOCC3)cc12 was tested, and the Potency was inconclusive: 39.8 µM [activator, single point].
CN1CCc2nc3sc(C#N)c(N)c3c(-c3cccs3)c2C1 was tested, and the Potency was inconclusive: 15.8 µM [inhibitor, single point].
In the case of COc1ccc(CNC(=O)C2CCN(S(=O)(=O)c3ccc4c(ccn4C)c3)CC2)cc1, the Potency is reported as inconclusive: 39.8 µM [inhibitor, single point].
With O=C(NC1CC(=O)N(c2ccccc2)C1)c1ccc(S(=O)(=O)N2CCCC2)cc1 (stereo not drawn) the max response, negative = inhibition was inactive: -3.02%.
In the case of Cc1ccc2[nH]c3c(=O)n(CC(=O)N4CCCC(C)C4)ncc3c2c1 (stereo not drawn), the max response, negative = inhibition is reported as inactive: -1.03%.
O=C(c1ccncc1)N1CCC2(CC1)CN(c1ccccn1)C2 was tested, and the max response, negative = inhibition was inactive: 29.1%.
O=C(OCc1ccccc1)C1=[N+]([O-])OC(C(=O)OCc2ccccc2)C1c1c[nH]c2ccccc12 (stereo not drawn) was tested, and the Potency was inconclusive: 39.8 µM [inhibitor, single point].
In the case of COc1cc(-c2nnc(COc3ccc4ccccc4c3)o2)cc(OC)c1OC, the Potency is reported as inconclusive: 31.6 µM [activator, single point].
For O=C(Nc1ccn(Cc2ccccc2F)n1)c1ccc(COc2cccc(Br)c2)cc1, the Potency was inconclusive: 39.8 µM [inhibitor, single point].
CCCc1[nH]nc2c1C(c1cccc(OC(=O)c3ccco3)c1)C(C#N)=C(N)O2 (stereo not drawn) was tested, and the Potency was active: 20 µM.
In the case of N#CCCn1c(SCC(=O)c2c[nH]c3ccccc23)nc2ccccc21, the Potency is reported as inconclusive: 31.6 µM [inhibitor, single point].
In the case of O=C(NC(=S)Nc1ccccc1N1CCCCC1)c1ccc(-c2cccc([N+](=O)[O-])c2)o1, the Potency is reported as active: 5.01 µM.
For CCOC(=O)N1CCN(C(=O)C(CC)n2nc(C)c3sc4ccccc4c3c2=O)CC1 (stereo not drawn), the Potency was inconclusive: 39.8 µM [activator, single point].
With CCOc1ncccc1C(=O)Nc1cccc(C(=O)Nc2cccc(S(=O)(=O)CCO)c2)c1 the Potency was inconclusive: 39.8 µM [activator, single point].
For O=C(NCc1ccco1)c1ccc2c(c1)N(Cc1cccc(Cl)c1)C(=O)c1ccccc1S2=O (stereo not drawn), the Potency was inconclusive: 39.8 µM [inhibitor, single point].
With Cc1cc(OCc2cc3c(cc2Cl)OCO3)c2c(C)cc(=O)oc2c1 the Potency was inconclusive: 31.6 µM [inhibitor, single point].
In the case of CC(=O)c1cc2c(cc1N/C(=N/S(=O)(=O)c1ccc(F)cc1)c1ccccc1)OCO2, the max response, negative = inhibition is reported as inactive: -4.33%.
COc1cc(C(=O)NC2(C(F)(F)F)NC(=O)N(CCCc3ccccc3)C2=O)cc(OC)c1OC (stereo not drawn) was tested, and the Potency was inconclusive: 39.8 µM [activator, single point].
In the case of O=C1CC(N2CCN(c3ccc(S(=O)(=O)N4CCOCC4)cc3)CC2)C(=O)N1Cc1ccccc1 (stereo not drawn), the Potency is reported as inconclusive: 31.6 µM [activator, single point].
For O=C(NC1CCCCC1)c1ccc2c(c1)N(Cc1cccc(Cl)c1)C(=O)c1ccccc1S2=O (stereo not drawn), the max response, negative = inhibition was inactive: -11.1%.
In the case of COc1ccccc1-c1cc2nc(C)c(CCC(=O)NC3CCCCC3)c(C)n2n1, the Potency is reported as inconclusive: 31.6 µM [activator, single point].
In the case of O=C(Cc1cccs1)N1CCCC(c2nc3c(nnn3Cc3cccc(Cl)c3)c(=O)[nH]2)C1 (stereo not drawn), the Potency is reported as inconclusive: 39.8 µM [activator, single point].
With COc1ccc(C(C(=O)NC2CCCC2)N(C(=O)c2snc(-c3ccc(F)cc3)c2N)c2ccccc2)cc1 (stereo not drawn) the Potency was active: 7.94 µM.
Cc1cccc(Nc2nc(N3CCCC3)nc(N3CCCC3)n2)c1 was tested, and the max response, negative = inhibition was inactive: 0.619%.
In the case of COc1cccc(NC(=O)Nc2cccs2)c1, the max response, negative = inhibition is reported as inactive: -22.7%.
In the case of CC(C)(C)n1nnnc1C(c1ccc(F)cc1)N(Cc1ccc(F)cc1)Cc1ccco1 (stereo not drawn), the Potency is reported as inconclusive: 25.1 µM [inhibitor, single point].
For O=C(c1ccccc1)c1ccc2nc(N3CCN(c4ccc(F)cc4)CC3)c3nncn3c2c1, the Potency was inconclusive: 12.6 µM [inhibitor, partial curve].
COc1ccc([N+](=O)[O-])cc1NC(=O)C(C)OC(=O)c1ccccc1C(=O)c1ccc(Cl)cc1 (stereo not drawn) was tested, and the Potency was inconclusive: 39.8 µM [inhibitor, single point].
For CCOC(=O)CC(NC(=O)CCc1c(C)nc2cc(-c3ccccc3)nn2c1C)c1ccc(C)cc1 (stereo not drawn), the Potency was inconclusive: 20 µM [activator, partial curve].
With C=CCn1c(=N)c(C#N)cc2c(=O)n3ccccc3nc21 the Potency was inconclusive: 31.6 µM [inhibitor, single point].
With Cc1ccccc1N1C(=O)C(Cl)=C(N2CCN(c3ccccc3)CC2)C1=O the Potency was inconclusive: 39.8 µM [inhibitor, single point].
In the case of COc1cc(OC)c(NC(=O)C(C)n2nc(-c3ccc(C)cc3)c3c(c2=O)CCCC3)cc1Cl (stereo not drawn), the Potency is reported as inconclusive: 20 µM [activator, single point].
For Cc1ccc(C)c(NC(=O)Cn2c(=O)n(CC(=O)NCCc3ccccc3)c(=O)c3ccccc32)c1, the max response, negative = inhibition was inactive: 1.32%.
With Cc1cc(CNC(=O)[C@H]2C[C@@H]2[C@H](NP(=O)(c2ccccc2)c2ccccc2)c2ccccc2)nn1C the Potency was inconclusive: 39.8 µM [activator, single point].
O=S(=O)(c1ccccc1)c1nc(-c2ccco2)oc1SCc1ccc(F)cc1 was tested, and the max response, negative = inhibition was inactive: -12.4%.
In the case of Oc1ccc(Nc2nc(Cl)nc(NCc3ccco3)n2)cc1, the Potency is reported as inconclusive: 25.1 µM [inhibitor, single point].
In the case of CCOc1ccc(Nc2oc(-c3ccc(COc4ccc(C)cc4)o3)nc2C#N)cc1, the Potency is reported as active: 3.16 µM.
OC[C@@H]1O[C@@H](N2CCN([C@@H]3O[C@@H](CO)[C@@H](O)[C@H](O)[C@H]3O)CC2)[C@@H](O)[C@H](O)[C@H]1O was tested, and the max response, negative = inhibition was inactive: 0.895%.
With CC(C)c1ccc(C2C3=C(CC(C)(C)CC3=O)NC3=C2C(=O)c2ccccc23)cc1 (stereo not drawn) the Potency was inconclusive: 31.6 µM [inhibitor, single point].
